# The other results are listed elsewhere or left out. Single values are uncertain, as repeats are few or missing.
# Assays:
# [1] = test system: H9 teratoma-derived LAM model cells, TSC2-/-; assay: percent SyTOX+ dead cells; higher = more cytotoxic; settings: 5 µM, treatment time 72 h, culture: 3D hyaluronic acid hydrogel
# [2] = test system: H9 teratoma-derived LAM model cells, WT; assay: percent SyTOX+ dead cells; higher = more cytotoxic; settings: 5 µM, treatment time 72 h, culture: 3D hyaluronic acid hydrogel, genotype: WT
# [3] = test system: H9 teratoma-derived LAM model cells, TSC2-/-; assay: percent of cells invaded past median invasion distance of vehicle control; LAM is lymphangioleiomyomatosis; the cells come from teratomas of the human stem cell line H9; higher = more invasion; extreme values may be limits of the assay; settings: 5 µM, treatment time 72 h, culture: 3D hyaluronic acid hydrogel
# [4] = test system: H9 teratoma-derived LAM model cells, WT; assay: as above; settings: 5 µM, treatment time 72 h, culture: 3D hyaluronic acid hydrogel, genotype: WT
# 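Wherever percent SyTOX+ dead cells is given: cells seeded atop a hyaluronic acid gel crosslinked via MMP-cleavable peptides, containing vitronectin peptides and methylcellulose, imaged live by high-content microscopy with automated analysis, one technical replicate per compound.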
# 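Wherever percent of cells invaded past median invasion distance of vehicle control is given: live cells imaged by high content microscopy and scored with in-house automated image analysis, one technical replicate per compound in each genotype and rapamycin condition.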
Compound,percent SyTOX+ dead cells ([1]; rapamycin 0 nM) [%],percent SyTOX+ dead cells ([1]; rapamycin 20 nM) [%],percent SyTOX+ dead cells ([2]; rapamycin 0 nM) [%],percent SyTOX+ dead cells ([2]; rapamycin 20 nM) [%],percent ([3]; rapamycin 0 nM) [%],percent ([3]; rapamycin 20 nM) [%],percent ([4]; rapamycin 0 nM) [%],percent ([4]; rapamycin 20 nM) [%]
"Cc1ccc(-n2nc(C(C)(C)C)cc2NC(=O)Nc2ccc(OCCN3CCOCC3)c3ccccc23)cc1 [BIRB 796, Doramapimod]",2.78,0.35,12.5,2.49,59.7,100,62.5,68.9
Cc1c[nH]c(/C=C2\C(=O)Nc3ccccc32)c1CCC(=O)O,19.4,12.1,19.6,13.3,18.9,6.9,23.3,40.5
CN1C(=O)C(Cc2c[nH]c3ccccc23)NC1=S (stereo unspecified) [Necrostatin-1],16.8,22.4,28.7,20.3,47.4,6.03,0.93,2.9
O=c1c(-c2ccc(O)cc2)coc2cc(O)cc(O)c12 [Genistein],10.2,10.6,16.9,11.7,15.1,13.3,28.5,16
CS(=O)(=O)c1cccc(CNc2nc(Nc3ccc4c(c3)CCC(=O)N4)ncc2C(F)(F)F)c1,16.1,19.4,40.7,27.4,4.24,6.8,1.16,1.89
CC(C)CC(=O)Nc1n[nH]c2c1CN(C(=O)C1CCN(C)CC1)C2(C)C,18.9,6.2,12.8,12.4,61,70.7,77.4,66.1
Cn1cc(-c2cnn3c(N)c(Br)c([C@@H]4CCCNC4)nc23)cn1,15.6,7.79,23.7,13.8,70.9,40.3,25.4,16
CCc1cc(CN2CC(C(=O)O)C2)sc1-c1noc(-c2ccc(Oc3ccccc3)cc2)n1,44.8,44,41.9,40.3,7.65,5.24,13.4,16
O=C(Nc1ccc(-c2cn[nH]c2)cc1)C1COc2ccccc2O1 (stereo unspecified) [Rho Kinase Inhibitor V],14.7,23.5,20.7,21.3,0,1.18,0,2.67
Cc1ccccc1C(C(=O)NC1CCCCC1)N(C(=O)CNc1ccc(C#N)cc1)c1cccc(F)c1 (stereo unspecified),18.3,14.3,15.7,14.5,28.5,25.3,22.5,22.4
CC(C)(C#N)c1cc(Cn2cncn2)cc(C(C)(C)C#N)c1 [Anastrozole; Arimidex; ZD-1033; ICI-D1033],12.2,16.7,8.45,13.3,59.1,42.9,59.1,52.4
CC(C)(C)OC(=O)Nc1ccc(-c2cc(C(=O)NCCCCCCC(=O)NO)no2)cc1,9.51,14.5,8.93,11.3,44.6,40.7,42.9,30.8
CCn1c(-c2nonc2N)nc2c(C#CC(C)(C)O)ncc(OC[C@H]3CCCNC3)c21,13,7.19,19.1,9.47,12.3,16.9,12.4,18.1
CC(C)C(=O)SCCCCCCC(=O)Nc1nc(-c2ccccc2)cs1,22.8,20.4,22,28.2,56.4,62.8,54.8,66.3
COc1cccc(-c2cc(=O)c3ccccc3o2)c1N,5.04,10.2,12.6,7.89,43,19.4,31.2,19.4
COc1ccc(C2=N[C@@H](c3ccc(Cl)cc3)[C@@H](c3ccc(Cl)cc3)N2C(=O)N2CCNC(=O)C2)c(OC(C)C)c1 [Nutlin-3],12.6,14.8,13.8,12.4,83.9,54.4,76.7,81.2
COc1cc(SC)ccc1C(=O)N1CCC(Cc2ccccc2)CC1,17.6,12.9,10.5,12.1,18.9,26.3,33.2,43.2
Cc1csc(NC(=O)CSc2nc3c(c(C(F)(F)F)c2C#N)CCC3)n1 [Irestatin 9389],14,8.64,13.8,13.7,66.7,42.3,19.1,29.7
O=C(O)c1ccc2c(c1)nc(Nc1cccc(Cl)c1)c1ccncc12,8.33,2.59,18.2,18.5,65.3,99,26.2,48.8
C[C@@]1(C(=O)Nc2ccc(F)nc2)CCCN1c1nc(Nc2cc(C3CC3)n[nH]2)c2cccn2n1,18.1,40.9,37,50.2,65.4,44.5,61.4,43.8
CC(C)N(CCCNC(=O)Nc1ccc(C(C)(C)C)cc1)C[C@H]1O[C@@H](n2cc(Br)c3c(N)ncnc32)[C@H](O)[C@@H]1O,27.6,29.2,28.1,36.8,17.5,3.85,22,5.33
O=C(/C=C/C#Cc1ccc(NS(=O)(=O)c2ccccc2)cc1)NO [Oxamflatin; 107-0130],9.06,9.56,10.5,11.4,53.9,40.8,51.5,49.7

# — the supplement of paper PMC10502849
